# Results taken from the RNAGym collection of RNA variant scans (doi:10.7554/elife.90254).
# The source gives no read counts; variants with many changes may rest on few reads.
# B1: LINE1-mini (parent)
# chain: GGCAGAGCUCAACACAGCGUGGCAAAGUGGCUGUGGCUAGACUGCC
# Variants of: B1
# Experiment: self-cleavage, relative activity (ratio to wild type); higher = more cleavage; in vitro, sequencing; the parent is a self-cleaving ribozyme
row,Variant,self-cleavage
1,GGCAGAGCUCAACACAGCGUGGCAAAGUGGGUGUGGCUCGCUUGCC,0.04
2,GGCAGAGCUCACCACAGCGUGACAAAGUGGCUGUGGCGAGACUGCC,0.01
3,GUCAGAGCUCAACAUAGCGUGGUAAAGCGGCUGUGGCUAGACUGGC,0.08
4,GGCAGAGCUCAACACAGCGUGGCAAAGUGGAUAUGGCAAGACUGCC,0.04
5,GCCAGAGCUCAGCACAGUCUCGCAAAGUGGCUGUGUCUAGACUUCC,0
6,GGCAGAGUUCAACACAGCGUCACAAAGUGGCUGUGGCUAUACUGCC,0.09
7,GGCAGAGCUCAACAUAGCGUGGCAAAGUGGAUGUGCCGAGACUUUU,0.07
8,GGCCGAGCUCAAUACAGCGUGCCAAAGUCGCUGUGGCCAUACUGCC,0.04
9,GGCCGAGCUCAACACAGCGUGGCAAAGUGGCCAUGGCUAGACUGCA,0.11
10,GGGAGAGCAAAACACAGCGUGGUAAAGUGGUUGUGGCUAGAAUUUC,0.03
11,GGCAGAGCUCAACACAGCGUGGCAUAGUGGAGGUGGCUACACUGCC,0.04
12,GGAAGUGCUCAACACAGCGUGGCAAAGUGGCUGUGGUUAGAGUGCC,0.01
13,GGGCGAGCUCAACACAGAGUGGCAAAGUGCCUGUGGCUACACUACC,0.18
14,GUGAGAGCUCAACACAGCGUGGCAAAGUGGCUGCGGCAAGACUGCC,0.04
15,GGCAGAGCUAAACACAGCGUGGCAAAGUGGAUGUGGCUAGACAGCC,0
16,GGCAGCGCUCAACACAGCGUGGCAAAGUGGCUGUGGCUUGACUACC,0.06
17,GGCAGAGCUCCACACAGUGUGGCAAAGUGGCUGUCGCAAGACUGCC,0.02
18,GGCAGAGCUCAACAACGCGUGGCUAAGUCGCUGUGGCUAGACUGCC,0.04
19,UGCAGUGCUCAACACAACGUGGCAAAGUGGCUGUGGCUAGACUGCC,0.23

row,Variant,self-cleavage
1,GGCAUAUCUCAACACAUCGUGGCAAAGUGGCUGUGGCUAGACUGCC,0.05
2,GGCAGAGUUCAACAAAGCGUGGCAUAGUGGCUGUGGCAAGACUGCC,0.02
3,GGCAGAGAUCAACAGAGCGUGGCAAAGUGGCUGUGGCGAGACUGCC,0.02
4,GGCAGAGCUCAACACAGCGUGGUAAAGUGGCUGUGGCGAUACUGCC,0.02
5,GGCAGAGCUCAACACAGCGUGGCAAUGUGGGUCUGGCUAGACUGCC,0.05
6,GGCAGAGAUCAACGCAGCCUGGCAAAGUAGCUGUGGCUAGACUGCC,0.42
7,GGCAGAGCUCAACACAGCGUGGCAAAGCGGCUUUGGCUAAACUGCC,0.06
8,GGCAUAGCUCAACACAGCGUGGCAAAGUGGUUGUGGCUAGGCUGCC,0.07
9,GGCAGAGCUCACCACAGCGUGGAAAAGAGGAUGUGGCUAGACUGCC,0.01
10,GGCAGAGCUUAACACAGCGUGGCAAAGCGGGUGUGGCUAGACUGCC,0.01
11,GGCAGAGUUAAACACAGCGGGGCAAAGUGGCUGUGGCUAGACUGCC,0.03
12,GGCAGAGAUCAACACAGCGUUGCAAAGUAACUGUGGCUAGACUGCC,1.45
13,GGCAGAGGUCAACUUAGCGUGGCAAAGUGGCUGUGGUUAGACUGCA,0.03
14,GGCAGAGCUUAACAAAGCGUGGCAAAGUUGCUGUUGCUAGACUGCC,0.05
15,GGCAGAGCUCAACACAGCGUGGCAACGUGGCUGUGACUAUAAUGCC,0.02
16,GGCAGCGCGCAACACAGCGAGGCAAGGUGGCUGUGGCUAGACUGCC,0.01
17,GCCAGAGCUCAACACAGCGUGACAAAGUGGCUGUGGCUAUACUGCC,0.02
18,GGCAGAGCUGAACAAAGCGUGGCAAAGUGUCUGUGGCUAGACUGCC,0.01
19,AGCAGAGCUCAACACAGCGUGGCAAAGUGGCUUCGGCUAGACUGAC,0.06

row,Variant,self-cleavage
1,GGUGGAGCUCAACACAGCAUGGCUAAGUGGCUGUGGCUAGCCCGCC,0.05
2,GGCAGAGCUCAACACAGCGUGGCUAAGAGGCUGUGGUUACAUUGCC,0.01
3,GGAAACGCUCAACACAACGUGGCUAAUUGGCUGUGGCUAGACUGCC,0.33
4,GGCAGAUCUCAACACAGCGUGGCAAUGUGGCUGAGACUAGACUGCC,0.06
5,GGCAGAGCUCAACAAUGCUUGGCAAAGUGGCUGUGGCUAGACUGCC,0.04
6,GGCAGAGCUCAACACAGCGUGGCAAACUGGCUAUGGCUAGACUUCC,0.08
7,GGCAGAACUCAACACAGCGUGGCAAAGUGGUUGUGGCUAGAGUGCC,0.06
8,GGCACCGCUCAACGCAGCGUGGCAAGGUGGCUGUGGCUAGUCUGCC,0.02
9,GGUAGAGCUCAACAAAGCGUGGCAAAGUGGAUGUGGCUAGUAUGCC,0.17
10,CGCAGAGCUCAAAACAGCGUGGCAAAGUAGCUGUGGCUAGACUGCC,0.11
11,GGCAGAGCUCAACACAGCGUCGCAAGGUGGCUGGGGCUAGACUGCC,0.13
12,GGCAAAGCUGAACACAGCGUGGCAAAGUGCCUGUGUCAAGACUGCC,0.01
13,GGCAGAGCUUAACACAGCGUGGCAAAGUGGCUGUGGCUGGACUAAC,0.06
14,GGCAGAGCUCAACACAGCGUGGCGAAGUGGCUGUGGCAAUUCUGCA,0.06
15,GGCAGCGCUCAACACAGCGUGGCAUAGUGGCUGUGGCUAUACUGCC,0.3
16,AGCAGAGCUCAACACAGCAUGGCAAAGUGGCUGUGGUUAUACUGCC,0.14
17,GGCAGAGCUCAACACAGCGUGGCAAAGUGCGUGUGUCUAGACUGCC,0.07
18,GUCAGAGCUCAACACAGCGUAGCAAAGUGGCUGUGGCUAGAGUGCA,0.03
